# Assay results: paper PMC10668032
# This is one part of the list. At the low end of the ranking the order means little.
# Biological target: SIX1 homeodomain (reference allele) (UniProt Q15475)
# Assay: universal protein binding microarray
# Conditions: Universal all-10-mer PBM (8x60K, AMADID 030236), 300 nM GST-tagged protein, Alexa Fluor 488 anti-GST; buffer, salt, pH and temperature not stated; high values mean tight binding; most listed sequences are background and not binding sites; double strand, one strand shown
row,Sequence,binding signal
1,GCTATTCA,0.0571 E-score
2,GTATCTGA,0.355 E-score
3,GAGTCGTA,0.121 E-score
4,AATATCAT,0.381 E-score
5,CCGAACTC,-0.282 E-score
6,CCGTGTGC,0.000375 E-score
7,ACAGGACC,-0.304 E-score
8,ACTCCTTA,-0.15 E-score
9,CGAGGGCA,-0.0559 E-score
10,CCGAACAA,-0.116 E-score
11,CAGTAACG,-0.265 E-score
12,ATCGCCAC,0.198 E-score
13,GATGGCGC,-0.202 E-score
14,CCCTTCGG,0.226 E-score
15,GCCTACTA,-0.0297 E-score
16,CAGTGTTC,-0.115 E-score
17,TATGTTAA,0.0145 E-score
18,AGCAACCT,-0.294 E-score
19,TAGAAAAA,-0.118 E-score
20,CTTTTAGC,-0.0553 E-score
21,TAGGAACA,-0.155 E-score
22,ATCACTCC,0.0736 E-score
23,AAGAGAGC,-0.186 E-score
24,AACACGCT,-0.0317 E-score
25,CCCGTGAC,0.0327 E-score

row,Sequence,binding signal
1,ACTGGTGC,-0.218 E-score
2,TACGCCTA,0.0904 E-score
3,GGCATAAA,0.0418 E-score
4,AAAACCCT,-0.0688 E-score
5,AGACGGAG,0.0152 E-score
6,ATGGAATG,-0.0696 E-score
7,TAATGGAA,0.0584 E-score
8,AGTGCCCA,-0.175 E-score
9,CCCTCACA,0.0291 E-score
10,CTATCGCC,0.179 E-score
11,AGTTAGCG,-0.0715 E-score
12,AGTTAGTG,-0.185 E-score
13,ACGGCGTG,-0.0433 E-score
14,GAAGCGGA,-0.0359 E-score
15,TACTCATA,0.181 E-score
16,GGAAATAC,0.113 E-score
17,TAGATATA,0.323 E-score
18,GCCGTCAC,-0.24 E-score
19,AAGCTTCG,-0.257 E-score
20,CTCAACCC,0.0886 E-score
21,GCCCGCGC,-0.184 E-score
22,AATCTTCA,-0.0872 E-score
23,AAGATGAC,0.00417 E-score
24,GAACTTCA,-0.314 E-score
25,CCGGCGAG,-0.0333 E-score

row,Sequence,binding signal
1,CAATATAC,0.197 E-score
2,ACGGCTAA,0.13 E-score
3,CTGGGCAC,-0.223 E-score
4,CGCACGGC,-0.088 E-score
5,CAATTCTA,-0.2 E-score
6,AGAACATC,-0.161 E-score
7,AGTTGGGC,-0.0845 E-score
8,AATTGCGT,-0.0445 E-score
9,AAAAGTCT,-0.317 E-score
10,CCCCACGA,0.0942 E-score
11,AGCACGTG,0.0669 E-score
12,AACGTTAT,-0.174 E-score
13,GAAGTCGA,-0.193 E-score
14,ATTCGTCG,-0.079 E-score
15,CGGGCTTA,-0.09 E-score
16,ATCGTATA,0.324 E-score
17,AAACTATG,0.033 E-score
18,GGGACACC,0.341 E-score
19,GGGAAGCA,-0.293 E-score
20,AATTTCTG,-0.249 E-score
21,CACTTCAA,-0.171 E-score
22,CTTGTAGA,-0.118 E-score
23,TACGGACA,0.104 E-score
24,CGCAGAAA,-0.39 E-score
25,AAATGCCC,-0.152 E-score

row,Sequence,binding signal
1,CGTAAGCC,-0.193 E-score
2,GCGGCGAA,-0.13 E-score
3,TCCGAAGA,0.189 E-score
4,CAATCGCA,0.00923 E-score
5,AGCGACAC,0.26 E-score
6,TCTACACA,-0.118 E-score
7,AAAGCTGT,-0.2 E-score
8,AGTGGCTC,-0.104 E-score
9,GGCAAACC,-0.0651 E-score
10,CAGACGTA,-0.089 E-score
11,GCGATTCC,-0.00474 E-score
12,CCACCCCA,0.0516 E-score
13,CAAGGACG,-0.258 E-score
14,ACTGCCCT,-0.141 E-score
15,ACACTCTG,0.0173 E-score
16,CCTTTTCC,-0.125 E-score
17,GCTCGCAC,-0.156 E-score
18,AGTGACAA,-0.121 E-score
19,GTCGATCA,0.0264 E-score
20,GCCAGTGA,-0.0529 E-score
21,ACTAATAT,0.272 E-score
22,CTAACGTC,-0.223 E-score
23,CCATTGTA,0.0462 E-score
24,ACGGCGCG,0.00186 E-score
25,AGTCCGAC,-0.129 E-score

row,Sequence,binding signal
1,CGCCCGCG,-0.0812 E-score
2,CAAGTCCA,-0.215 E-score
3,CAAGGTAG,0.00419 E-score
4,CCTGCCAG,-0.146 E-score
5,ATGGTTTC,0.081 E-score
6,AGTGGCCC,-0.26 E-score
7,CCACCTGC,-0.142 E-score
8,TACATGAA,-0.0562 E-score
9,CAATTTAC,-0.194 E-score
10,GTCGAAAA,-0.14 E-score
11,GCGGAAAC,-0.0738 E-score
12,TCCTAGAA,0.0647 E-score
13,ACGATACT,0.439 E-score
14,ATACTCCC,0.303 E-score
15,CGTTTTCA,-0.142 E-score
16,CCCTAGGC,-0.113 E-score
17,TAAAGCTA,-0.0359 E-score
18,AACACAGG,-0.178 E-score
19,AACGATGA,0.00348 E-score
20,ACGTTGAT,0.138 E-score
21,TAGGGTAA,0.00051 E-score
22,AAGCTGAG,-0.143 E-score
23,CTGAGTGC,-0.141 E-score
24,ATACTAGA,0.218 E-score
25,GGCTAGAC,-0.0795 E-score

row,Sequence,binding signal
1,ATACGTAG,0.276 E-score
2,ACATGGCC,-0.126 E-score
3,GACAACTA,-0.295 E-score
4,CCGGCACC,0.186 E-score
5,CCAGTAGA,0.0604 E-score
6,GCTACTAA,0.0109 E-score
7,AAAGAGTC,-0.345 E-score
8,CAATCGTA,-0.092 E-score
9,CCCACCCG,0.159 E-score
10,ATTGAAGC,-0.121 E-score
11,AACTGCTG,-0.207 E-score
12,TCTATCAA,-0.0326 E-score
13,CCCTGCCC,-0.00646 E-score
14,AACAATGC,-0.186 E-score
15,ATGATAAG,0.0638 E-score
16,GCAAGTTA,-0.225 E-score
17,GCATTCTA,0.035 E-score
18,CCGACAGG,-0.0126 E-score
19,CAGTCATA,-0.0309 E-score
20,CGTGTTCC,0.0379 E-score
21,CACCCGCA,0.141 E-score
22,ATTAAATC,0.0534 E-score
23,AAGATTCT,-0.273 E-score
24,ACAGGAGA,0.028 E-score
25,ACGTTATC,0.112 E-score

row,Sequence,binding signal
1,AAAGCACG,-0.0788 E-score
2,ACATAGGT,0.0555 E-score
3,CTGCAAGA,-0.0238 E-score
4,GATCATGC,0.242 E-score
5,ACCCTGGG,0.0559 E-score
6,AATACATC,0.204 E-score
7,AATAGTCG,0.0223 E-score
8,GCCGATCA,0.229 E-score
9,CTATGACC,-0.0351 E-score
10,AAGCAGGC,-0.0711 E-score
11,GAGATACA,0.332 E-score
12,AACCAGTG,-0.0727 E-score
13,CAGGCCTC,-0.153 E-score
14,AGGCCAGC,-0.332 E-score
15,CAAACCAG,-0.0636 E-score
16,AGCAGATG,-0.0581 E-score
17,CCTGGGAA,0.0474 E-score
18,CACTGTAC,-0.047 E-score
19,ACAAGACT,-0.203 E-score
20,AGAACGAG,-0.154 E-score
21,CGCTGTTA,-0.117 E-score
22,GGCTTTGA,-0.101 E-score
23,AGTGCTGA,-0.186 E-score
24,CCAATGGC,-0.179 E-score
25,CGCTAGAG,-0.00983 E-score

row,Sequence,binding signal
1,CCGCGCTA,-0.0437 E-score
2,CAGCTTCA,-0.0909 E-score
3,AAAACTGG,-0.22 E-score
4,ATCTATCA,0.19 E-score
5,AGCTAGGC,-0.134 E-score
6,ATCCTCTG,0.276 E-score
7,AGAACCCG,0.102 E-score
8,ACTCACCA,0.0206 E-score
9,AAGCGTGG,-0.259 E-score
10,GAGGCTCC,-0.314 E-score
11,TAATATTA,0.161 E-score
12,CTAGGGCA,-0.17 E-score
13,TCCCACGA,0.0911 E-score
14,ATAGCGTG,0.0286 E-score
15,TGATTCAA,-0.0501 E-score
16,TACAGAAA,0.00145 E-score
17,CCTCACCA,-0.0989 E-score
18,AGTGACTA,-0.0807 E-score
19,ATTAATGA,0.19 E-score
20,GTTTCTGA,-0.0298 E-score
21,TCACTCCA,-0.146 E-score
22,CTGGCAAC,-0.101 E-score
23,GTCGCTAA,-0.266 E-score
24,GCTGGCTA,-0.103 E-score
25,ATTCTGAG,-0.0157 E-score

row,Sequence,binding signal
1,GGCATCCC,-0.0557 E-score
2,CCTAATCG,-0.0382 E-score
3,ACCTCTTC,0.116 E-score
4,ATCGCCTA,0.232 E-score
5,ATCATCAA,0.199 E-score
6,AACAAATG,-0.204 E-score
7,GACGTCTC,0.163 E-score
8,GAAGTCAC,-0.33 E-score
9,CGTATTGA,0.23 E-score
10,GGGGGGCA,-0.103 E-score
11,AAATCTGT,-0.214 E-score
12,GGACGTCC,-0.108 E-score
13,ACCGGTAC,0.0184 E-score
14,CCTCAGAA,-0.124 E-score
15,ACAAGGAC,-0.124 E-score
16,ACTTGAAA,-0.127 E-score
17,CCCGCTGA,0.0663 E-score
18,AGTCAACT,-0.152 E-score
19,ATGAAGGC,-0.0809 E-score
